167 variants from the RNAGym collection of RNA variant scans (doi:10.7554/elife.90254) can be followed below.

Read counts are not given, so values of variants with three or more changes are uncertain.

First the molecules themselves.
B1: LINE1-mini (parent)
chain: GGCAGAGCUCAACACAGCGUGGCAAAGUGGCUGUGGCUAGACUGCC

In the data set the parent is B1. The experiment in a line: self-cleavage, relative activity (ratio to wild type); higher = more cleavage; in vitro, sequencing; the parent is a self-cleaving ribozyme.
On to G2A C3A U20C A26U G30U, for which the self-cleavage came out at 1.26. Under G2A C13A G21A stands 0.2; under G2A C13U C15U C18A G19U U20G C23U, 0.16. In the case of G2A C8U G19A C31U G40U U43G it was 1.39; in that of G2A A6C A16G C18U, 0.11. As to G2A C3A G7C C18U A26U U38G, the self-cleavage is 1.74. In the case of G2A A11U G36A it was 0.1; in that of G2A A14G C15A G19U, 0.09. For the variant G2A C13U C15A G19U U28C, the self-cleavage stood at 0.11. Under G1U U38A G40A stands 0.05; under G2A C3U C18A G19U G21U A41C, 0.1.

For the variant G2A A16G G35U, the self-cleavage was 0.55.

Turning to G2A C15A C18A C23A, the self-cleavage was 0.

Consider G2A A12C A14U A39U, for which the self-cleavage was 0.03. As to G2A C10U G36A, the self-cleavage is 0.3. In the case of G2A C10A A24G A41G it was 0.02; in that of G2A C13A A16C G17A U43G, 0.1. In the case of G2A A4G G5C G7U C23G U32G it was 0.01; in that of G2A A16G G19C U20A A25C G40U, 0.03; in that of G2A C3U C13A A14C A41C, 0.24. In the case of G2A C13U A14G A24C it was 0.29. In the case of G2A A25C G30A, the self-cleavage was 0.44.

With G2A C15A G22C, the self-cleavage came to 0.29. Under G2A A12G C13G stands 0.09; under G2A C3U A41C, 0.14; under G2A A4U A14G A25G U38G A39G, 0.04. In the case of G2A A16U C42A U43A it was 0.13; in that of G2A C10A U20A, 0.11.

For the variant G2A A14C C31G G35U A39U C45A, the self-cleavage was 0.04. Under G2A C8A A16U G30U stands 0.88; under G2A A11G G22U, 0.04; under G2A C15A G19A U34A, 0.1. Under G2A A14C G17U G19A stands 0.24. Turning to G2A C10U U28G G33U A39U, the self-cleavage stood at 0.03.

Regarding G2A A6G G7U A41C, the self-cleavage was 0.05. On to G2A A12U C15G C18G A41C, for which the self-cleavage amounted to 0.1. Under G2A C8U G30A stands 0.48.

For the variant G2A A6G G19U, the self-cleavage was found to be 0.07.

With G2A A4U C23G, the self-cleavage came out at 0.71. Under G2A A12G C18A C37U stands 0.2; under G2A C10G A24G, 0.05. Under G2A C3A A12C U20C stands 0.07; under G2A A4C A25C, 0.18. In the case of G2A C13G U20A it was 1.31; in that of G2A C13G G33A, 0.05. For G2A C15U C18U G27C A41G G44U, the self-cleavage came to 0.03.

Take G2A C3G U32A: the self-cleavage amounted to 0.41.

Turning to G2A C13U G22C G33U, the self-cleavage stood at 0.08. Under G2A C10G C23G A25C stands 0.03; under G2A A4U G17A U32C U34A, 0.12; under G2A C8G U9C A11U C18A U38C C45U, 0. Under G2A A14C G29C G36A G40U stands 0.16; under G2A C15A G17U G35U G40C A41U, 0.09; under G2A C3U C8U, 2.29. Under G2A C15G U34A C45U stands 0.01; under G2A A11G G36A C37G, 0.03; under G2A A4U G5U G7C A12C C15A U32C, 0.1.

As to G2A A4C U9G U20A C31G G35U, the self-cleavage worked out at 0.01. Consider G2A A25U U32A, for which the self-cleavage was found to be 0.26. Turning to G2A A26G C42U, the self-cleavage came to 0.21. In the case of G2A A4C G19U C23G G29A G30C C31A, the self-cleavage was determined as 0.03.

Regarding G2A C3U G5A C13U A41C C46G, the self-cleavage is 0.34. For the variant G2A A6C U34A C37A, the self-cleavage amounted to 0.07.

Regarding G2A A11C U20C A26U G44A, the self-cleavage is 0.07. Under G2A A24U U34C stands 0.17.

As to G2A C3U G19A A24G G40A C46G, the self-cleavage was found to be 0.4. In the case of G2A C3U U9G A39U it was 0.08; in that of G2A A4G U38A, 0.23. In the case of G2A C8G C23A G36A C37G it was 0.14; in that of G2A A4G A14G, 0.12. In the case of G2A A6G U38A it was 0.05; in that of G2A C3G A4C U20C A25G, 0.13. For G2A A6G C8G C18G, the self-cleavage came to 0.05. In the case of G2A A4G G22A A25C C42G C46A it was 0.09; in that of G2A A6G C15U U32C G40U, 0.07. As for G2A A11C G29C, the self-cleavage is 0.06. In the case of G2A C18A A24G U43A it was 0.09. In the case of G2A C8U C10G it was 0.01; in that of G2A C13A C45A, 0.25; in that of G2A A24U G44A C45U, 0.45.

In the case of G2A A14C U28C, the self-cleavage amounted to 0.06.

As for G2A C3A A24G A25U, the self-cleavage was 0.99. G2A C13U U43C: the self-cleavage amounted to 0.11. In the case of G2A C10U G27U C37G it was 0.02; in that of G2A C8U A41U, 0.38; in that of G2A A4G G7C C15U G30U, 0.19.

In the case of G2A C3U A6C U20C U34G C37U, the self-cleavage stood at 0.19. In the case of G2A C8U G19U A24U U28A U43G it was 0.05.

For the variant G2A C13U G30A U32A, the self-cleavage was found to be 0.24. Under G2A C8G C31U stands 0.02; under G2A C10A A24U, 0.06.

For the variant G2A A4G G33C A39C, the self-cleavage came to 0.03. In the case of G2A C10U A16U it was 0.06.

With G2A A4U G7U A39C, the self-cleavage came out at 0.24. Under G2A A16C A26C stands 0.13.

As for G2A A12U A14G G21U G33A C37A, the self-cleavage was 0.03. Under G2A C18A G19U stands 0.09; under G2A A6G C8U U20G, 0.19.

With G2A C15U U28G G44A, the self-cleavage came to 0.29. Regarding G2A C10A G29U, the self-cleavage was determined as 0.05. With G2A C10U C15A G17A G36U G44C, the self-cleavage was determined as 0.04. In the case of G2A C3A A16U U28C it was 0.81; in that of G2A A4U G5C C18G A25C, 0.17; in that of G2A C8G U20G U34G, 0.08. Under G2A C10A A14C C18U A25U G27C U43A stands 0.01. In the case of G2A C8U C10A A12U A14G G27U U28A G30U A39U it was 0.01; in that of G2A C10G U28G A39U, 0.03.

Regarding G2A A14U G21U, the self-cleavage turned out to be 0.37. In the case of G2A A4U U9A A16G G17U G27A G35U it was 0.62; in that of G2A C8G G22A, 0.03. Under G2A C10U C13U G29U stands 0.13; under G2A C13G G35C, 0.13. In the case of G2A C15U A16G C42U U43A it was 0.01. As to G2A A12U U38G C42A C46A, the self-cleavage was found to be 0. In the case of G2A A6U C13U it was 0.84. Under G2A A16G G27C U38C stands 0.07; under G2A C15A A24G G33U, 0.14. Under G2A A11C G19U A25G C37A stands 0.01; under G2A C18A G21U U32G A39U, 0.07. In the case of G2A A16G G29A U38G A39U C46U, the self-cleavage was 0.39. In the case of G2A A4U A14U G21U, the self-cleavage was 0.09. As for G2A A6G C13G G19C, the self-cleavage is 0.07.

G2A C3A G17U C18G G19U U32G C45A: the self-cleavage turned out to be 0.03. Under G2A A11U A26G C31U stands 0.06. On to G2A C13U G17C C18G G35U, for which the self-cleavage was found to be 0.37. Under G2A C3G A4G A26U stands 0.28; under G2A A14U A16C U20G, 0.1. Under G2A A14G G17U stands 0.29. G2A A4U A16G: the self-cleavage was determined as 0.35.

Regarding G2A A11G A12G G21C U28G, the self-cleavage is 0.02. Take G2A C10G A11U A41C: the self-cleavage is 0.09.

For the variant G2A C8A G35U C45G, the self-cleavage was determined as 0.48.

Regarding G2A C3G C8G U9A G19C U28C G30A G36A, the self-cleavage is 0.24. In the case of G2A A4C A11C G19U C37G it was 0.01; in that of G2A A14U G27A, 0.1. Under G1U U32A U34C stands 0.01.

G2A C13G G19C A26C G33U: the self-cleavage was 0.08. In the case of G2A A12C C46A it was 0.05; in that of G1U U38A C46U, 0.16; in that of G2A A16U G40C C46G, 0.13.

As to G2A C3U A6C, the self-cleavage was 0.12. On to G2A C10A G22U C31U, for which the self-cleavage was 0.04. Under G2A C3G G19U A39C A41C stands 0.1. In the case of G2A C3G A4U C31A G33C G35A it was 0.1; in that of G2A C13A G19U G35U C46U, 0.31. In the case of G2A C13U G17A G44U it was 0.13.

Take G2A A4C G40C: the self-cleavage was 0.43.

As for G2A A11U C15A, the self-cleavage came out at 0.04. Under G2A A11U A14C G22U stands 0.03; under G2A A16G G29A, 0.82; under G2A C8G G21U C37G, 0.13. In the case of G2A A4C A12G G40U, the self-cleavage was 0.06. Under G2A A6U A11U G36C stands 0.03; under G2A A4U G29C U43G, 0.06; under G2A C3A C8A U34G C42G, 1.89. In the case of G2A A11C A41G G44U it was 0.01. In the case of G2A C13G G21A C37U A39C C45A it was 0.08; in that of G2A A12U G33C G35U U38A C46G, 0.06; in that of G2A A12U C13G G22A, 0.17. On to G2A A26U G44C C45U, for which the self-cleavage amounted to 0.14. Under G2A A4G G7A stands 0.38; under G2A A25G C46A, 0.82.

Turning to G2A C15U C23A C42U, the self-cleavage was 0.32. Consider G1U U34C C46G, for which the self-cleavage is 0. In the case of G2A C10A G19U C37A A39C it was 0.02; in that of G2A A4G U9G C31U C45A, 0.02. In the case of G2A C8U C31A it was 0.32.
